In the supplement of paper PMC12217912:
The list shows a part of the results. The full chains were built here from the parent and the listed change. Inactive controls read about 0.05.

B1: TEV protease; numbered along this chain (parent)
chain: MGESLFKGPRDYNPISSSICHLTNESDGHTTSLYGIGFGPFIITNKHLFRRNNGTLVVQSLHGVFKVKDTTTLQQHLVDGRDMIIIRMPKDFPPFPQKLKFREPQREERICLVTTNFQTKSMSSMVSDTSCTFPSGDGIFWKHWIQTKDGQCGSPLVSTRDGFIVGIHSASNFTNTNNYFTSVPKNFMELLTNQEAQQWVSGWRLNADSVLWGGHKVFMVKPEEPFQPVKEATQL

Variants of: B1
Test: raw area under fraction-flipped curve 0-4 h after induction (AUC4h, not background-subtracted), DNA-recorder readout of cleavage of the substrate (dimensionless); higher = more cleavage of the substrate by the protease variant
Details: temperature: 34 °C; time window: 0-4 h after rhamnose induction
Protocol: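 In vivo DNA recorder in E. coli TOP10(DE3) ΔrhaA at 34 °C. Each TEVp single-site mutant (parent TEVp 0) is paired with a single-site variant of the 7-mer TEVs (canonical ENLYFQ|S). The substrate sits between flexible linkers in a Bxb1-sfGFP-TEVs-SsrA fusion, so cleavage stabilises Bxb1 and speeds flipping of a recombination array, read by NGS. The value is the raw area under the fraction-flipped curve over 0-4 h after rhamnose induction (AUC4h), with ≥20 reads per time point. It is not background-subtracted; inactive controls average about 0.047.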
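Further: Bxb1 expression induced with 0.2% (w/v) L-rhamnose at OD600 near 0.5, cultures sampled hourly, flipped fraction per protease–substrate barcode pair counted by paired-end Illumina sequencing.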

Variant | area with substrate CNLYFQS | area with substrate DNLYFQS | area with substrate FNLYFQS | area with substrate GNLYFQS | area with substrate HNLYFQS | area with substrate INLYFQS | area with substrate KNLYFQS | area with substrate LNLYFQS | area with substrate MNLYFQS | area with substrate NNLYFQS | area with substrate PNLYFQS | area with substrate QNLYFQS | area with substrate SNLYFQS | area with substrate TNLYFQS | area with substrate VNLYFQS | area with substrate WNLYFQS | area with substrate YNLYFQS | area with substrate RNLYFQS
S127I | 0.0675 | 0.106 | 0.0632 | 0.0647 | 0.0689 | 0.0676 | 0.0793 | 0.0654 | 0.0606 | 0.0648 | 0.0654 | 0.0546 | 0.0629 | 0.0681 | 0.0511 | 0.0674 | 0.0452 | –
Q198A | 0.0697 | 0.0645 | – | – | 0.0579 | 0.0663 | 0.0806 | – | 0.0638 | 0.052 | 0.0916 | – | – | – | 0.0605 | 0.0591 | – | 0.0654
Q198N | 0.0752 | 0.0844 | – | – | 0.0778 | – | 0.085 | 0.066 | – | 0.0596 | – | – | – | – | – | 0.0646 | 0.036 | –
F65N | 0.0668 | 0.0691 | 0.0671 | – | – | 0.0337 | – | – | – | 0.0577 | 0.0667 | – | 0.0747 | 0.0728 | – | 0.0575 | 0.0622 | –
G54K | 0.0621 | 0.0705 | – | – | 0.0632 | – | 0.0539 | – | – | – | – | – | 0.0622 | 0.0513 | – | – | – | –
V183P | 0.0401 | 0.0796 | – | 0.0731 | 0.0569 | 0.0348 | 0.0632 | 0.0587 | 0.0638 | 0.068 | 0.0681 | 0.0657 | 0.0577 | 0.0642 | 0.0602 | 0.0571 | 0.0455 | –
T44N | 0.0501 | 0.046 | – | – | 0.0347 | 0.043 | 0.0619 | – | – | 0.0437 | 0.0473 | – | 0.044 | 0.0504 | 0.0409 | 0.038 | 0.0444 | –
I42V | 0.0884 | 0.08 | 0.058 | – | 0.0807 | – | – | – | 0.1 | 0.0706 | 0.0721 | – | – | 0.0798 | – | 0.0521 | 0.0525 | –
N45E | 0.0796 | 0.0677 | – | – | – | 0.0513 | – | 0.059 | 0.0505 | 0.0567 | – | – | – | 0.0521 | 0.0494 | 0.0486 | 0.0494 | –
L235Q | 0.0595 | 0.0905 | 0.0526 | 0.0691 | 0.0571 | 0.0588 | – | – | 0.0698 | – | – | – | 0.11 | – | 0.071 | 0.057 | 0.0613 | –
Q146D | 0.0762 | 0.0786 | – | – | 0.0555 | 0.0856 | – | 0.0646 | 0.059 | – | – | 0.0664 | 0.0624 | 0.068 | – | 0.046 | 0.0645 | –
N116L | 0.0643 | 0.079 | – | – | – | 0.0823 | – | 0.0699 | – | – | 0.0557 | – | – | 0.0845 | – | 0.0741 | – | –
P9C | 0.0684 | 0.0613 | – | 0.101 | 0.0548 | 0.0749 | – | – | 0.0608 | 0.0564 | – | 0.0647 | 0.0509 | 0.0738 | – | 0.0668 | – | –
I110K | 0.0544 | 0.0633 | 0.0607 | 0.0633 | 0.0773 | – | 0.0535 | 0.0503 | 0.0587 | – | 0.0564 | – | 0.0555 | 0.0521 | 0.059 | 0.056 | 0.0416 | 0.0587
L22Y | 0.0528 | 0.0638 | 0.0422 | 0.0491 | 0.0463 | 0.062 | – | 0.0545 | – | – | 0.0405 | – | 0.0584 | 0.0484 | 0.0457 | 0.0409 | – | –
D69S | 0.0691 | 0.0546 | 0.0673 | – | 0.0559 | 0.0607 | 0.0506 | 0.0572 | 0.0464 | 0.0674 | 0.0567 | – | 0.0608 | 0.0534 | 0.0591 | 0.0575 | 0.0568 | 0.0795
K100G | 0.0655 | 0.0694 | – | – | 0.0609 | – | – | – | 0.0663 | 0.0529 | 0.0556 | – | 0.0555 | 0.0664 | 0.0631 | 0.0545 | 0.06 | –
W212G | 0.0564 | 0.0622 | 0.0197 | – | 0.056 | 0.0503 | 0.0569 | – | 0.0832 | 0.0672 | 0.0534 | – | 0.0567 | – | 0.0666 | 0.0663 | – | –
P155I | 0.0546 | 0.0826 | 0.0572 | 0.0524 | 0.0649 | 0.0512 | – | 0.0632 | 0.0719 | – | – | – | 0.0487 | – | 0.0638 | 0.0602 | 0.0508 | 0.0542
S26E | 0.0629 | 0.0733 | 0.0669 | 0.0532 | 0.0626 | 0.0634 | 0.0706 | 0.0569 | – | 0.0693 | 0.0725 | – | 0.07 | 0.0621 | 0.0716 | 0.0682 | – | –
S26R | 0.0639 | 0.0641 | – | 0.0558 | 0.0584 | – | – | 0.0585 | 0.0746 | – | 0.0552 | 0.0468 | 0.0615 | 0.0544 | 0.057 | 0.0582 | 0.0546 | 0.0616
Q105I | 0.0745 | 0.0894 | – | 0.0675 | 0.0708 | – | 0.0748 | 0.0411 | 0.07 | 0.0824 | 0.029 | – | 0.0572 | 0.0623 | 0.0681 | – | – | 0.0714
Q151T | 0.0701 | 0.0722 | 0.0847 | 0.0606 | 0.0788 | 0.0511 | 0.0702 | 0.0779 | 0.0656 | 0.056 | 0.0621 | – | 0.075 | 0.0609 | – | 0.0551 | 0.0629 | –
L156R | 0.0504 | 0.0685 | 0.048 | 0.0461 | 0.0399 | – | 0.0383 | 0.0528 | – | 0.0581 | 0.05 | – | – | 0.0589 | – | 0.0489 | 0.0545 | –
F95H | 0.0654 | 0.0825 | 0.0783 | 0.0785 | 0.0648 | 0.0482 | 0.0726 | 0.052 | – | 0.0552 | 0.0576 | – | 0.0671 | 0.0648 | – | 0.0587 | – | –
K68I | 0.059 | 0.0807 | 0.0553 | – | 0.063 | 0.0802 | 0.0644 | 0.0542 | 0.0733 | 0.0617 | 0.0675 | 0.0618 | 0.0653 | 0.0837 | – | – | 0.0527 | –
R106E | 0.0668 | 0.0856 | – | – | 0.0731 | 0.0551 | – | – | 0.0732 | – | 0.0632 | – | 0.0955 | 0.059 | – | 0.0342 | 0.0565 | –
F41P | 0.0445 | 0.0476 | 0.0406 | – | 0.0412 | – | 0.0554 | 0.0453 | 0.0533 | – | 0.0517 | – | – | 0.0582 | 0.0396 | 0.0491 | 0.0554 | –
G37F | 0.0497 | 0.067 | – | 0.0706 | 0.0541 | 0.0452 | 0.0576 | 0.0621 | 0.0523 | 0.0573 | 0.0561 | 0.0735 | 0.0431 | 0.0517 | 0.0604 | 0.0511 | 0.0461 | –
